# Laboratory results as given in ChEMBL document CHEMBL4888484, “Replenishing the malaria drug discovery pipeline: Screening and hit evaluation of the MMV Hit Generation Library 1 (HGL1) against asexual blood stage Plasmodium falciparum ,using a nano luciferase reporter read-out” (2022).
# In all, about 150,000 compounds went through this assay and about 540 (0.36%) showed an effect of 50% or more. Some of the results follow.
# Tested on: Plasmodium falciparum
# Experiment: Primary screen in NF54 nanoGlo assay, in single point, at 2uM, 72h; a lower Z score goes with more inhibition
# Assay type: functional, Erythrocyte
# Conditions: timepoint 72 hour
SMILES,% Inhibition,Z score
CN(CC(C)(C)CO)C(=O)c1ccc(-c2ccc3nccc(O)c3c2)cc1,0%,-0.04
Cc1ncc(C(=O)Nc2ccc(F)c(NS(C)(=O)=O)c2)c(C(C)C)n1,-8%,1.34
CC[C@H](NC(=O)c1cnc(O)cn1)c1cnn(C)c1,-12%,1.45
COc1cccc(NC(=O)[C@@H]2CC(=O)c3cc(F)ccc3O2)c1,31%,-3.56
Cc1ccc(CN2CCc3nc(N4CCCCC4)nc(Oc4ccc(F)c(F)c4)c3C2)cc1,2%,-0.33
O=C(NCCCn1ccnn1)c1ccc2c(c1)CCCC2,-13%,1.47
COc1ccc(-c2cc3c4nn(CC(=O)Nc5cccc(C)c5C)c(=O)n4ccn3n2)cc1,-9%,1.28
O=C(CCc1ccsc1)N1CCCCCCC1,-11%,1.08
O[C@]1(CN2CCCC2)COCCN(c2nnnn2-c2ccccc2)C1,-4%,0.67
Cc1nnsc1C(=O)N1CCc2sc(Cl)cc2C1,-4%,0.43
Cc1cnn(CCNC(=O)C2(C)COC2)c1,-9%,1.52
CCCNC(=O)N(CC(=O)N1CCN(c2ccc(-c3ccc(OC)c(OC)c3)nn2)CC1)C[C@H]1CCCO1,-8%,1.31
CCOc1ccc(CC(=O)N2CC[C@H](c3nc4ccncc4n3C(C)C)C2)cc1,-19%,1.82
CN(C)c1nc(N)nc(CN(C)[C@H](c2ccc(F)cc2)C2CC2)n1,7%,-0.92
Cc1ccc(-c2nnc([C@H](C)Nc3cnn(CC(F)(F)F)c3)o2)cc1,4%,-0.59
O=C1NCCCN1C1CCN(Cc2ccc(Cl)c(C(F)(F)F)c2)CC1,10%,-1.75
CCn1ccnc1[C@H]1OCCC[C@@H]1NC(=O)c1csc2cncn12,-13%,2.51
COc1ccc(C(=O)NC(C)CCC2CCCO2)c(O)c1 (stereo not drawn),-12%,1.84
CN(C(=O)N1CC[C@H](OC(F)F)C1)c1ccc(F)cc1,-31%,3.66
CN1CC(C(=O)N2CC3CC=CCC3C2)CC1=O (stereo not drawn),-18%,2.42
COC[C@@H]1CN(c2cnccn2)C[C@H]1C(=O)NC(C)C,-8%,1.19

SMILES,% Inhibition,Z score
Cc1n[nH]c(C)c1CNC(=O)N[C@@H](C)c1ccc(F)cc1,-12%,2.37
CN(C(=O)[C@H]1CCCOC1)c1ncccc1C#N,-6%,0.95
CC(C)Cn1c(=O)c2sccc2n(CC(=O)N2CCCC2)c1=O,37%,-5.42
COc1ccc2nc(O)c(-c3nc4ccccn4c3Nc3ccc(C)cc3C)cc2c1,-7%,0.9
COc1ccc2c(c1)CCCN2C(=O)COC(=O)c1cc(=O)c2c(C)nn(C)c2[nH]1,-3%,0.6
O=C(NC(CC1CCCO1)C(F)(F)F)c1cc2n(n1)CCCO2 (stereo not drawn),-17%,2.01
O=C1CN(C(=O)c2ccc3c(c2)n(CC2CC2)c(=O)n3C2CCCCC2)CCN1,-10%,0.96
Cn1c(=O)sc2cc(NS(=O)(=O)c3ccc(C4CCCCC4)cc3)ccc21,7%,-0.91
CC(C)C(=O)N1C[C@H](CNC(=O)OC(C)(C)C)C2(CCOCC2)C1,-7%,0.85
Cc1ccccc1NC(=O)N1CCC(N2CCC(CC3CC3)(C(N)=O)CC2)CC1,7%,-0.93
CCN(Cc1nc2c(s1)C[C@@H](C)CC2)C(=O)Cn1cnnn1,3%,-0.57
O=C(NCC[C@H]1CCC(F)(F)C1)Nc1cnnn1-c1ccccc1,-2%,0.34
COc1ccc(Oc2nc(N3CCCC3)c(Cl)c3c2N(Cc2ccccc2)CCS3(=O)=O)cc1,10%,-1.09
Cc1n(CC(=O)c2ccccc2)c2ccccc2[n+]1CC(=O)c1ccccc1,59%,-12.26
COc1ccc(-c2noc(-c3cccn3CC(N)=O)n2)cc1OC,0%,0.06
C1=CC[C@@H](c2cn(Cc3ccc4c(c3)CCCO4)nn2)CC1,-9%,1.72
N#CCCn1cc(CNCCOc2ccccc2F)c2ccccc21,-2%,0.3
Cc1ccc([C@@H](C)Cc2cn(CCC(=O)N3CCCC3)nn2)o1,-11%,2.09
CN1CCN(S(=O)(=O)c2cccc(Cl)c2)C[C@]12CCNC(=O)CC2,3%,-0.5
Cc1noc(C)c1S(=O)(=O)Nc1cc(-c2cccs2)n[nH]1,-12%,1.25
Cc1cc(CN(C)Cc2cc(-c3ccc(C)o3)n[nH]2)on1,-15%,1.46

SMILES,% Inhibition,Z score
Cc1nc2c(C(=O)N3C[C@H](C)OC4(CCC4)C3)cccc2o1,-12%,1.5
CN(Cc1csc(-c2cccs2)n1)C(=O)c1cnn2ccccc12,-4%,0.7
O=C(c1cnc(N2CCOCC2)nc1)N1C[C@@H]2[C@H]3CC[C@H](CC3)[C@@H]2C1,-12%,2.09
Cn1cc(S(=O)(=O)N2CCC[C@@H]2CN2CCCC2)c(C(F)(F)F)n1,19%,-2.37
O=C1CC[C@@H]2CN(c3ncccn3)CC[C@@H]2N1CCc1cccs1,3%,-0.55
O=C(C1CC1)C1CN(C(=O)C2CC2c2ccccc2C(F)(F)F)CCO1 (stereo not drawn),4%,-0.62
CNC(=O)[C@H]1CCN(Cc2ncc(C(F)(F)F)s2)C1,-7%,0.94
NC(=O)[C@]12CCC[C@H]1CN(C(=O)Cc1cccc3ncccc13)C2,-7%,0.93
Cc1cc(CN2C[C@H]3CN(C(=O)C(C)C)C[C@@]3(CO)C2)n(C)n1,11%,-1.42
CN(CCC#N)C(=O)CNc1c(F)cc(F)cc1Br,-5%,0.45
CC(C)c1nc2n(n1)[C@]1(CCS(=O)(=O)C1)Nc1ccccc1-2,-4%,0.35
CCC[C@H](C#N)c1ccc(Cl)cc1Cl,-1%,0.09
COC(=O)N1CC[C@H](Nc2nc3c(cc2C#N)CCC3)C1,-5%,0.8
c1ccc2c(c1)CN=C2N1CCCCC1,-1%,0.11
CCc1cc(-c2cccc(C(=O)NCCN3CCCC[C@@H]3CO)c2)nc(C)n1,2%,-0.29
Cc1[nH]cnc1CC(=O)NC[C@]1(O)CCCC1(C)C,-9%,1.59
COC[C@@](C)(O)CNC(=O)COc1ccccc1C,-14%,1.98
O=C(COc1ccccc1)N1CC(Cc2nncn2C2CCCC2)C1,-5%,0.7
Cc1scc(C(=O)N[C@@H](Cc2ccncc2)C(=O)O)c1C,1%,-0.13
O=C(c1ccncc1)N1CC[C@@]2(CCCN(Cc3ccc(F)c(F)c3)C2=O)C1,-17%,1.58
CCC[C@@H](CNC(=O)c1cc(C)c(O)c(C)c1)N(C)C,6%,-0.85

SMILES,% Inhibition,Z score
CNC(=O)N1CCC(N2CC3(CCCCC3)[C@H]2c2ccncc2)CC1,1%,-0.15
CCc1ccc(C(=O)N2CCCCCC2)o1,-17%,3.11
CC(C)OCc1cc(NC(=O)C2CCCCCC2)ccc1O,-15%,2.29
CCc1ccc(NC(=O)Cn2nc3n(c2=O)CCN(CC)C3=O)cc1,-6%,1.07
COc1cc(C(=O)NCC#N)ccc1F,-1%,0.09
CCc1ccc(CC(=O)N2CC(C)(C)[C@H]2c2cccnc2)nc1,6%,-1
C[C@@H](c1ccncn1)N(C)Cc1cn(CCC(N)=O)c2ccccc12,16%,-2
Cc1cc(NC(=O)C(C)(C)C#N)ccc1N(C)C,-5%,0.52
COc1c(CN[C@H](c2ccccc2)c2cccs2)c(C)nn1C,-5%,0.7
Cn1cnc(C(=O)N2CCC[C@H](N(Cc3cccnc3)C(=O)C3CCC3)C2)c1,-2%,0.21
COc1ccc(OC)c(S(=O)(=O)Nc2ccc3ccn(C)c3c2)c1,5%,-0.82
Cc1nn(-c2ccc(C(F)(F)F)cc2)c(C)c1[C@@H]1C=C[C@@H](NS(=O)(=O)c2ccccc2)C1,4%,-0.8
O=C(Cc1cccnc1)NC1CCCCCC1CO (stereo not drawn),-19%,1.71
COc1ccc(F)cc1C(=O)N1CCC2(CC1)CC(=O)NC(=O)C2,-5%,0.66
CCc1ccc(C(C)C(=O)N2C[C@H](OC)C[C@H]2c2ncc[nH]2)cc1 (stereo partly drawn),-1%,0.14
CCNC(=O)[C@H]1CCCN(c2nc3ncn(CC(=O)Nc4ccccc4OC)c(=O)c3s2)C1,-20%,1.74
O=C(Cc1ccc(-c2ccccc2)cc1)N1CC[C@@H](CO)[C@@H](O)C1,-8%,1.14
Cc1cc(C)nc(N[C@H](c2ccc(F)cc2)c2cc(C)sc2NC(=O)c2ccccc2)n1,36%,-4.86
C[C@H]1Cc2cnccc2N1S(=O)(=O)c1cnn(C2CCC2)c1,7%,-1.37
COc1cccc2c(=O)c(C#N)cn(Cc3ccccc3)c12,-24%,2.31
O=C(C[C@@H]1CCNC[C@@H]1Cc1cc(COc2ccccc2)on1)NCc1ccc(F)cc1,42%,-1.64
